The supplement of paper PMC12632987
The full ranking holds about 4,500 sequences; the median of “median log2 fold change of GCK-ALFA target abundance (FLAG IP / Myc IP barcode read proportion)” is about 0.078, and the lowest 2% start at about -0.6. This is one part of the list.

B1: GBRAP_137_3671 (protein)
chain: MIEVKIELEDGLAFAEVTVEGSKEELEKAAEIAEDIAGEIPNIAVSVKLTEDGKLEIDLFGTKEDIMAALKELAKRMNKTVEVTEYDLETGEVTKSTIKP
B2: GBRAP_184_5132 (protein)
chain: TLLERAVEAKTAEELIAKARAVVEEAAAAGARLVLSVFAEDLSVEDNIAVIRELGELKAAHPQIEAIIVDLPEVSEEDLDKLIEAADAAGVKLVAAIPDE
B3: GBRAP_160_3994 (protein)
chain: EEEKEKLFKEIKELLEEAYELMKGESPEERLAIARVTSGQILLTLEESGLVSDETIEEVDEILDEFVEWIAANPNASDEELKAKLEETFKKIKEVIEKNS
B4: GBRAP_166_4888 (protein)
chain: SEEEVKKKAEELKEELIEKLKKLSESQLEEKTELVFEWARELKKLGVSKREAVELLIEAAREVGLSEEALNAAAAAVIIELDLDEETIELLDKLIEEYLK
B5: GBRAP_160_4021 (protein)
chain: SEEIEELIKEIEELIEETIEDIEGLTPEERLTLVRGTVGEILQLAFESPVVSDETEDKIAEIGDETIARFEANADATLEEHRAIFEEFLEEIKELLESEK
B6: GBRAP_128_3184 (protein)
chain: SVEEVKKKTTELMEKIKNSSVEEARKIATELAEWLKTLSLEEVEAAAEVILEKLPELSEEKLEVLADVLREERPKFSPEKAEIVAGVEVEALNEAEELEE
B7: GBRAP_35_5508 (protein)
chain: SADDTAADMLVATIEDLTLAVPDLDVETATQIANQLIASAAALADDLADNPAALDRLRDAVTALRDAIEKHYGDSPLAKQTLAQLDALIARLDARRAAAA
B8: GBRAP_11_2671 (protein)
chain: MKETLLEAAEIAEKAAKVVKELIEKGVDDEELLKELEELLKKLEEIAKKHLSPALQRDVEVARELFEEMLKDKENKEKYAKELLAALRVLEGNLLLEADE
B9: GBRAP_160_4461 (protein)
chain: MEEIKKFVEELVKDVEEELEKNKNDSPENIINAAIIEIGSHLMEAVDKGIVTDEMEEILMEAMDKIRELAKTHPNASPEEIIEKIKEIVKEMAEKILKAA
B10: GBRAP_184_5048 (protein)
chain: KVKEEVIKYETLEELKEKLEALKEELKDFKGDLIVLLEAKKITKEDVEAAIDALADILKAGYVTSVTVGFDGEMSEEVIDLALKLGDEAGIKVVLALEEE
B11: GBRAP_125_2971 (protein)
chain: EEEELLEDLRTLALALGLSEEDAEEAVRLARASSVKQTLYAIAAALGYEELAEAVEKLTEEEAKEVLRRVTEEIRANPEMTPEEVKELLLEEAERAIEER
B12: GBRAP_39_5692 (protein)
chain: EEEEEDEDVVSYLQALAAGRLYETGKSLEEAYKEAKKILEEEAKRHPELKELLEELIKLADEKGEEAKEVLIGIAVLIEEGTPLEEIKEHIEKAINYFKK
B13: GBRAP_26_5435 (protein)
chain: VEETLRRAEEEMRKAAAKLGDPNKAAAAVAEFLTLLEEAVEEIEEKKLSKEEAEKLVEEKAEEFRKELKRLGVDEDKAKELVEVFKEQLRKVAEKILKER
B14: GBRAP_84_7001 (protein)
chain: SKEERREELLEFIIENSSIELLKLAYIYALLKNDNKSATRLLNALLERDPEAAAEALDLATEAALEDKEEEVKKELLEEAKKEGEEIYEAVEEYIELLEE
B15: GBRAP_57_6459 (protein)
chain: MSKLEKIEAAAERVKALIEAGAPREEIEAAVRELLALLSKEVLLDTLLILDPSTRADLSLEELRERLLALIMRLLEEEGPEAAIRAIDLLVGQAEAEVEE
B16: GBRAP_43_5792 (protein)
chain: MKEIVEGALDFARTALETPEITDETKARIVVDAVEFAADEGLLTKEELKELLELLEESVSLEVAIEALEKIKEILKKLGAPQELIDVVEEALERVKKKAA
B17: GBRAP_160_4731 (protein)
chain: SARIEEFAKEAEEIFLKAVEDSKDESKEEAAALFRGAAGEVLMDVMSDPRFTDEQEDAAAEILDELVKELEANFDASEEEKKKIVKEKIEKLLKELKAIK
B18: GBRAP_128_3434 (protein)
chain: SEEEKLEEAFKLIEEILKASVEEVYKLTKELLELFGTLSEENAEKVADYLISKIPELTKEQLEALAEAMREKRPELDEYHANLVNEVEVEALNEILELEE
B19: GBRAP_125_3054 (protein)
chain: NLEEAIEALAELGKILGLSEEEVEELRKLAEKYGVKGTLYALLLAEGEEELAELVAKLTEEEVIEVLKRLLEYIKSHPNITKEEALEKLKELAEEALAKK
B20: GBRAP_74_6571 (protein)
chain: MEKYTKEMKAAAAAGDVKKAIKIVEEMIEKGIKKVSAEFLNALATIAEKHLPKATPEEQERFIDAASELVDLVLESEQDEETYKALNKLITALYEAELAR
B21: GBRAP_128_3427 (protein)
chain: STAAKVAEVEALLEAMLTADAAEAAALARRIAALMLASDLETVEAMVEVILSMLPKFTAEQLEILADALREARPEFTPEKQLLVSEVEVAALNEAEEKEE
B22: GBRAP_160_4283 (protein)
chain: SEEAEKLKEEVREIAEETIAMMEGETQANRVTIVRVAGGEVALALLESEEVTDETVDKALEIWDELAAYIAAHPDLTQEELAELVREAEEKIKEEIEKEA
B23: GBRAP_52_6373 (protein)
chain: MEERARELARRILELAEAGDEEGLREEVRRIVEEESDELIAAVLRELRDMILTEPGLDPEALLTAAATLASEVLEAEKGTPETWAALTELLAAALALEQA
B24: GBRAP_139_3726 (protein)
chain: SAEEEKIKEVVELAKKSIEEGYKYVSEVADKLNSMSLETAEKALEAIAEAAKEFSFDDVEAFFDKLIKEIKEKHKNEDLAELAEAARNRALAAVAVREEA
B25: GBRAP_166_4960 (protein)
chain: AVEEARAEVEALLARFEAEGPRLSEEERREMVLEIAEALGRLREAGAPEEEILELATRLIILATRAGLPVSFVEAALVNIAGLPIDLVDKAVALAEKRLA
B26: GBRAP_160_4044 (protein)
chain: KEKYEKLEKETKEIFEEAKELIEGQSAEEAAVIAAVAIGEIILKAEELGVDDEELLEKIDKVGDELVATLLANPDLTEEEIKALLEKAEEEILKAIKEAK
B27: GBRAP_128_3325 (protein)
chain: MNEERIKEAEEIIKEIVKADVEEAKKLTEELLKLMETMTDEERDIVVEIMEKELEKLDAEKLDAIADTIRELQPTLDPLTARYAAEIEVEALNLAEEKEE
B28: GBRAP_14_3800 (protein)
chain: MEERKKAINDIADETLEILEEILADAPEEVRERVLALVEEARDRIIEENLTPDEVDELRDELLAEVAEILADAPADVRAQVLAAIDVGFGEIIIEIEELE
B29: GBRAP_64_6485 (protein)
chain: MEEIEELHEETLEKAKELVELLKDSSEELQEQAEEVLELIEESKEASLEEAADLLAEAAKLLNEILKSPELTEEQRDQVAELLDLVSELLWLVVEEELKK

Target: GABARAP, O95166
Sequence (O95166 whole entry, the tested form may be a part): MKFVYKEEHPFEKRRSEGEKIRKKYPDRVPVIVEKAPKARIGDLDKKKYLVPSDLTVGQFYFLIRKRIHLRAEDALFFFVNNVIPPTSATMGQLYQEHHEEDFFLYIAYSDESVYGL
Assay: median log2 fold change of GCK-ALFA target abundance (FLAG IP / Myc IP barcode read proportion) (log2 ratio); each designed protein is fused to an ALFA-tag nanobody in HEK293 cells to bring the named protein to FLAG-tagged glucokinase (GCK); Myc marks an untargeted standard; higher = target protein stabilised (more abundant)
Conditions: target protein: 3xFLAG-MCP-GCK-ALFA reporter; HEK293 landing pad (RPLP)
How it was run: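 HEK293 landing-pad cells received a recombined binder library fused to the ALFA nanobody and were induced with 2 μg mL^−1 doxycycline, then transfected with a plasmid encoding a FLAG-tagged target and a Myc-tagged standard. Lysates were collected after 48 h for anti-FLAG and anti-Myc immunoprecipitation, and the circular RNA barcodes were reverse transcribed, amplified and sequenced. Target abundance for each binder is the median log2 ratio of FLAG to Myc barcode read proportions. Barcodes had to reach a proportion of at least 10^−7 in both replicates, each binder needed at least 3 barcodes per replicate, a pseudocount of 10^−6 was applied, and the two replicates were pooled.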

| Binder | median log2 fold change |
| --- | --- |
| B1 | 0.0982 |
| B2 | 0.00161 |
| B3 | -0.13 |
| B4 | 0.0518 |
| B5 | -0.0319 |
| B6 | 0.0381 |
| B7 | -0.0855 |
| B8 | 0.189 |
| B9 | 0.0432 |
| B10 | 0.153 |
| B11 | 0.116 |
| B12 | 0.284 |
| B13 | 0.244 |
| B14 | 0.168 |
| B15 | 0.269 |
| B16 | 0.0287 |
| B17 | 0.211 |
| B18 | 0.000172 |
| B19 | -1.42 |
| B20 | -0.298 |
| B21 | 0.18 |
| B22 | -0.154 |
| B23 | -0.998 |
| B24 | 0.171 |
| B25 | 0.265 |
| B26 | -0.219 |
| B27 | 0.156 |
| B28 | -0.397 |
| B29 | -0.204 |
